Measured values as given in PubChem BioAssay AID1745845 (National Center for Advancing Translational Sciences (NCATS), 2022).
The whole screen tested about 360,000 compounds, of which about 2,600 (0.72%) were called active. Inconclusive means that the source gave no clear call. Such entries were picked first, then a sample of the others. Calls follow the shape of the dose curve; as a rule, active = well fitted inhibition curve with a large enough effect; inconclusive = small, poorly fitted or top-dose-only effect; inactive = no such curve, though single readings can be large or run the other way. Where the call is inconclusive, the potency comes from a doubtful curve fit.

Assay: Primary qHTS for Inhibitors of ATXN expression; also: nearly all actives have a fitted effect of over 55% in size
Settings: HEK-293 ATXN2-luciferase reporter, luminescence, 24 h; activity change, negative = inhibition: at 57 µM (top of the series)
Summary of the method: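 qHTS (up to 57 uM final) was run with 24 h compound exposure of reporter cells at 37 °C. Each well was multiplexed: SteadyGlo luminescence measured ATXN2-luciferase expression after a fluorogenic Gly-Phe-AFC viability readout (25 uM final).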
% is scaled to controls: 0 for no effect and ±100 for the full control effect; potency is read from the fitted curve at half-maximal effect; tags tell the direction and shape of the fitted curve.

Q: Which Potency does the source give for Cc1cc(NC(=O)c2cc(-c3cccnc3)nc3c(C)c(C)ccc23)no1 here?
A: Its Potency is inconclusive: 28.2 µM [inhibitor, single point].

Q: For Fc1cccc(NC(=S)NCc2ccccn2)c1, which “activity change, negative = inhibition” value is on record?
A: Its value is inactive: 11.4%.

Q: With N#Cc1c([N+](=O)[O-])cc([N+](=O)[O-])cc1S(=O)(=O)Cc1ccccc1 as the compound, how does the Potency read?
A: The Potency was inconclusive: 35.5 µM [inhibitor, single point].

Q: With CC(C)(C)c1ccc(C(=O)Nc2ccc(C(=O)OCc3cc(=O)n4ccsc4n3)cc2)cc1 as the compound, how does the Potency read?
A: The Potency was inconclusive: 11.2 µM [inhibitor, partial curve].

Q: For Cc1cccc(N2CCN(S(=O)(=O)c3ccc4c(c3)C(C)(C)C(=O)N4C)CC2)c1C, which Potency is on record?
A: The Potency was inconclusive: 21.2 µM [inhibitor, partial curve, poor fit].

Q: With CCCCC(=O)NC(c1ccc(Cl)cc1Cl)c1ccc2cccnc2c1O (stereo unspecified) as the compound, how does the Potency read?
A: The Potency was inconclusive: 15.8 µM [inhibitor, single point].

Q: With CN(C)c1cccc(C(=O)Nc2nc3ccc(S(=O)(=O)NC(C)(C)C)cc3s2)c1 as the compound, how does the Potency read?
A: The Potency was inconclusive: 31.6 µM [inhibitor, partial curve, poor fit].

Q: Which Potency does the source give for CCOC(=O)c1[nH]c(C)c(C(=O)N2CCc3c([nH]c4ccccc34)C2c2ccccn2)c1C (stereo unspecified) here?
A: Its Potency is inconclusive: 39.8 µM [inhibitor, single point].

Q: With Cc1ccc(NC(=O)c2ccc(COc3ccccc3Cl)o2)cc1 as the compound, how does the Potency read?
A: The Potency was inconclusive: 10 µM [inhibitor, partial curve, poor fit].

Q: For OC(c1cccc(Cl)c1)c1ncc(-c2ccc(Oc3ccccc3)cc2)[nH]1 (stereo unspecified), which Potency is on record?
A: Its Potency is inconclusive: 39.8 µM [inhibitor, single point].

Q: With CC(=C\c1ccccc1)/C=C1/SC(=O)N(CCCC(=O)Nc2ccc(C(=O)O)cc2)C1=O as the compound, how does the Potency read?
A: The Potency was inconclusive: 3.16 µM [inhibitor, single point].

Q: For O=C(NNC(=S)Nc1ccc(F)c(Cl)c1)c1ccccc1Br, which “activity change, negative = inhibition” value is on record?
A: Its value is inactive: 28.9%.

Q: With Cc1cc(C)c(Cc2c(C)nc3c(C(=O)NCc4ccco4)cnn3c2C)c(C)c1 as the compound, how does the Potency read?
A: Its Potency is active: 14.1 µM.

Q: With C[C@@H](c1ccccc1)N1C[C@H](COCc2ccccc2)Oc2cc(N3CC[C@H](N(C)C)C3)ccc2S1(=O)=O as the compound, how does the Potency read?
A: The Potency was inconclusive: 39.8 µM [inhibitor, single point].

Q: For Cc1cccc(-c2cnc(C(O)c3ccc(-c4ccccc4)cc3)[nH]2)c1 (stereo unspecified), which “activity change, negative = inhibition” value is on record?
A: Its value is inactive: -2.57%.

Q: With CCOc1ccc(Nc2c3ccccc3nc3ccccc23)cc1 as the compound, how does the Potency read?
A: The Potency was active: 11.2 µM.

Q: For COc1ccc(CN2CCNC(=O)C2CC(=O)NCCC2=CCCCC2)c(F)c1 (stereo unspecified), which “activity change, negative = inhibition” value is on record?
A: The value was inactive: 6.38%.

Q: For Cc1ccc(NC(=O)CSc2nc3c(c(=O)[nH]2)CCC3)cc1Cl, which “activity change, negative = inhibition” value is on record?
A: Its value is inactive: -7.67%.

Q: Which “activity change, negative = inhibition” value does the source give for CC(=O)c1ccc(NC(=O)C2CCCC2)cc1 here?
A: The value was inactive: 21.3%.

Q: For COc1ccc(CNC(=O)c2nnn(-c3cccc(C(F)(F)F)c3)c2N)cc1, which “activity change, negative = inhibition” value is on record?
A: Its value is inactive: -28.2%.

Q: Which Potency does the source give for CC(=O)Cc1nsc(NC(=O)c2ccc(Cl)cc2Cl)n1 here?
A: The Potency was inconclusive: 1.19 µM [inhibitor, partial curve, poor fit].

Q: With Cc1oc(-c2ccccc2F)nc1CS(=O)(=O)CC(=O)N1CCN(c2ccc(Cl)cc2)CC1 as the compound, how does the Potency read?
A: Its Potency is inconclusive: 28.2 µM [inhibitor, partial curve, poor fit].

Q: With CCOC(=O)N1CCC(NC(=O)c2cc(COc3ccccc3SC)on2)CC1 as the compound, how does the “activity change, negative = inhibition” value read?
A: Its value is inactive: 4.71%.

Q: Which Potency does the source give for Cc1cc(C)c2sc(N(CCCN(C)C)C(=O)CN3C(=O)c4ccccc4C3=O)nc2c1 here?
A: Its Potency is inconclusive: 14.1 µM [inhibitor, partial curve].

Q: Which Potency does the source give for CC(C)c1ccc(N(CC(=O)N2CCN(Cc3ccccc3)CC2)S(C)(=O)=O)cc1 here?
A: The Potency was inconclusive: 14.1 µM [inhibitor, single point].

Q: With CC(CN1C(C)CCCC1C)OC(=O)c1ccccc1Br (stereo unspecified) as the compound, how does the Potency read?
A: Its Potency is inconclusive: 2.51 µM [inhibitor, partial curve].

Q: With O=C(c1ccc2c(c1)N(Cc1ccc(Cl)cc1)C(=O)c1ccccc1S2(=O)=O)N1CCC(Cc2ccccc2)CC1 as the compound, how does the “activity change, negative = inhibition” value read?
A: The value was inactive: -21.8%.

Q: Which Potency does the source give for Cc1ccc2c(CN3CCN(S(=O)(=O)c4ccc5c(c4)OCCO5)CC3)cc(=O)oc2c1C here?
A: The Potency was inconclusive: 11.2 µM [inhibitor, partial curve, poor fit].

Q: Which Potency does the source give for CC(=O)c1cccc(NC(=O)c2cccc3c(-c4cccc(C(N)=O)c4)coc23)c1 here?
A: The Potency was active: 31.6 µM.

Q: With CCOC(=O)c1c2c(n(C)c1C)C(=O)C(=O)c1ccc(Br)cc1-2 as the compound, how does the Potency read?
A: The Potency was inconclusive: 2.51 µM [inhibitor, full curve, poor fit].

Q: With Cc1ccc(N=Nc2ccc(O)cc2)c(Br)c1 as the compound, how does the “activity change, negative = inhibition” value read?
A: The value was inactive: 89.3%.

Q: For C[C@H](NC(=O)c1nc[nH]c1C(=O)N[C@@H](CCCCNC(=O)OC(C)(C)C)C(=O)OC(C)(C)C)c1ccccc1, which Potency is on record?
A: Its Potency is inconclusive: 39.8 µM [inhibitor, single point].

Q: For CC1CC2=C(CC1/C=N/NC(N)=S)C(C)(C)CCC2 (stereo unspecified), which Potency is on record?
A: Its Potency is inconclusive: 22.4 µM [inhibitor, single point].

Q: Which “activity change, negative = inhibition” value does the source give for COc1cccc(NC(=O)COc2cccc(-n3cnnn3)c2)c1 here?
A: The value was inactive: -18.7%.

Q: For Cc1ccc(-c2csc(NC(=O)CCNC(=O)c3ccc(Cl)cc3)n2)cc1, which Potency is on record?
A: The Potency was inconclusive: 39.8 µM [inhibitor, single point].

Q: For COc1cc(OC)cc(-c2cc3nc(C)c(CCC(=O)Nc4ccccc4OC)c(C)n3n2)c1, which Potency is on record?
A: The Potency was inconclusive: 15.8 µM [inhibitor, partial curve].

Q: Which Potency does the source give for NC(=O)[C@@H]1CC2(CC(c3cccc(NC(=O)COc4ccc(Cl)cc4)c3)=NO2)CN1C(=O)COc1ccc(Cl)cc1 (stereo partly specified) here?
A: The Potency was inconclusive: 22.4 µM [inhibitor, partial curve].

Q: With O=C(CN(c1ccc(Cl)c(C(F)(F)F)c1)S(=O)(=O)c1ccccc1)Nc1cccnc1 as the compound, how does the Potency read?
A: The Potency was inconclusive: 39.8 µM [inhibitor, partial curve, poor fit].

Q: For Cc1[nH]cnc1C(=O)N/N=C/c1ccc([N+](=O)[O-])s1, which Potency is on record?
A: The Potency was inconclusive: 7.94 µM [inhibitor, partial curve].

Q: With Oc1cc(-c2ccncc2)cc2cccnc12 as the compound, how does the Potency read?
A: The Potency was active: 3.55 µM.

Q: For Cc1ccc(-n2nnnc2SCC(=O)NC2CCCc3ccccc32)c(C)c1 (stereo unspecified), which Potency is on record?
A: Its Potency is inconclusive: 42.3 µM [inhibitor, partial curve, poor fit].
